The full ranking holds about 33,000 sequences; the median of “E-score (-0.5 to 0.5)” is about -0.017, and the highest 2% start at about 0.3. The list shows a part of the results.
target: T1, Sut1 (UniProt P53032); test: PBM E-score (8-mer binding enrichment) (E-score (-0.5 to 0.5)); higher = stronger / more preferred TF binding; most listed sequences are background and not binding sites; conditions: protein concentration: 200 nM; construct: GST-full length
T1 sequence: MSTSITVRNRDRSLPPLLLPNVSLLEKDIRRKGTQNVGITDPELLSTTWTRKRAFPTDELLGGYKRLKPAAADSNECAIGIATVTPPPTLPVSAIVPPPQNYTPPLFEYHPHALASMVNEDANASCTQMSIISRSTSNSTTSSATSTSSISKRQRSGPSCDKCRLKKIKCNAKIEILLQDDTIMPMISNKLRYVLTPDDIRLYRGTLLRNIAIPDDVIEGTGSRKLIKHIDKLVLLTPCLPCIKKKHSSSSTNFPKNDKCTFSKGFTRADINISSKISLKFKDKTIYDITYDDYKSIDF
Summary of the method: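 Masliner-normalised scans of fluorescent anti-GST signal were the basis for scoring. That signal came from GST-tagged yeast transcription factors applied at about 100-200 nM to double-stranded universal all-10-mer Agilent arrays on fresh or once-stripped slides. Each ungapped eight-base word, pooled with its reverse complement, received an E-score from the Universal PBM Analysis Suite.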

Sequence | PBM E-score
GTCGCTTA | -0.0152
AGTCCATC | -0.129
GTCTTTAA | -0.00514
CCGTATAG | 0.0391
ATTTTATG | 0.13
CTACGTGC | -0.0843
AGACATAA | 0.102
GCAGAAGA | -0.157
CCAGTACG | -0.115
AGTCTGAG | -0.247
ATCGCGGG | -0.128
AGTTAAGG | 0.00162
ACATAGCA | 0.0804
TAGGAATA | 0.0527
ACTGCTCG | -0.0729
CTATTTAA | 0.188
AGTCAGGA | -0.169
TCGAGAAA | 0.103
AGGGAAGC | -0.113
GCGGGGAA | -0.0681
GAAGGCCC | -0.157
CCTTCCCG | -0.188
AGAAAAAG | 0.138
CTGCCAAG | -0.0803
CGGGCCGA | -0.172

Sequence | PBM E-score
TTCAAGAA | 0.252
TCCTAGCA | -0.0531
CCGAATGC | 0.0646
GGTTGTAA | 0.188
AACTGGGT | -0.126
ACCTTCCG | 0.12
AAATGCCC | -0.199
ACGATTTG | 0.124
CTATTAGC | 0.157
CGTCTGAA | -0.0662
CTGGCTTA | -0.205
GGTTCGCA | -0.0674
AATTTTAA | 0.295
ATTAAATG | 0.243
GCGGTGCA | -0.175
ATAGCCAA | 0.109
AATGAGTA | 0.242
GGTAAAGA | 0.161
CTGTACCC | 0.0146
CACTGGAG | -0.349
AGGAGCCT | -0.0746
ACAGCGTC | 0.0103
ATCAGCAG | -0.0924
CGGACGCC | -0.0182
GCTTGGGA | -0.258

Sequence | PBM E-score
ACATCCGG | 0.132
GGATGGAA | -0.00982
AATGGCCT | 0.0835
ATTTAATC | 0.307
TTCCGAAA | 0.291
CCAAGTTA | 0.0242
TAAGTACA | 0.111
ATCATAAA | 0.0553
GGGTCCAA | -0.156
GGAATAAA | 0.189
CGGACCTA | 0.42
ACACTCCC | -0.0227
CATTTTCA | 0.161
GGTCCGTA | 0.253
CAGGAATA | 0.0329
ATAGACTC | -0.125
CAACCTTA | -0.0348
CAGACTAC | -0.19
CTTAATTA | 0.0362
CAAGCCAA | -0.059
GAGTAGCA | 0.0747
TAGTCCAA | -0.01
AGGCCTGG | -0.227
ACACAGCG | 0.0219
CGTTCCAC | -0.126

Sequence | PBM E-score
ACATACGA | 0.117
ATGTTTGC | -0.0518
TCGTTCCA | -0.0676
ATTAAAGA | 0.311
ACATCGTA | 0.00487
AGTACTGG | -0.186
GTGATGGA | -0.0248
TCCGTGCA | 0.252
ACTACTCA | 0.164
ACGTACGT | -0.147
CGGCCTAG | -0.315
CTAAAACC | -0.0394
ACCGAGCG | -0.0249
ACAGCACG | 0.0231
CGCGTCGA | -0.0126
AAAGGCAC | -0.0268
AGTACAAG | -0.0112
AACACCAA | 0.0507
ATCATTTC | 0.225
ATACAACG | 0.197
GTTCACGA | 0.0274
GGATGTAC | 0.0606
AAGATTCT | -0.102
CAGTTCTA | -0.125
CTCTACAG | -0.113

Sequence | PBM E-score
ATAGCTAA | -0.0492
ATGGCTAA | 0.0596
AAACGCGG | 0.238
ACTAGGAA | 0.072
ATCTCCCG | -0.0416
CGTTAGTC | 0.0993
AATTAGGT | 0.159
CGGACGTA | 0.104
ATCGAATC | 0.0591
GCAAATGC | -0.122
CCGCCGAC | -0.1
ATTAAGCC | 0.141
CTCTGAAA | -0.1
AGCGACCA | 0.0107
CCGCCCGG | 0.113
GAGCAGTA | 0.0211
CATCTATA | 0.267
AATTATGC | 0.208
GCCTCAGC | -0.251
TGAGTCAA | 0.11
AGCCAGCA | -0.215
CTCGTGTC | -0.212
CTACTTTA | 0.0985
AACGGTAC | 0.106
AATGATCA | 0.0374

Sequence | PBM E-score
GCATTCGC | 0.00851
CGAAGGTC | 0.0331
ATCGGGGG | -0.081
ATTGGCTC | 0.0791
ACGCCCTC | -0.102
GCGAAAGA | -0.0511
AGCGAAAT | 0.0618
GAATACAA | 0.252
CGTTGCGC | -0.153
GACAAAAA | 0.27
ATTCACTC | 0.0156
AAAACCAA | 0.0706
ATGAATTA | 0.16
CCTACGTC | -0.139
CATTAACC | 0.148
ATCAGTCG | 0.135
ACTGTTCT | 0.135
CATTCCCG | -0.0507
ATCTATGG | -0.226
AATGGGTG | -0.0472
GGGGAGTA | -0.00179
ATACTTGG | -0.1
ACGAGACA | -0.108
AAAGGCCG | -0.0675
GTGTCAAA | 0.0945

Sequence | PBM E-score
ATTTCAAG | 0.164
GGCAGTAC | -0.117
CCATTGGG | -0.335
GCGCATCC | -0.137
GTATACAA | 0.179
GCCGGTAC | -0.243
AAGAGAGA | 0.0152
CAGTACAA | -0.0297
AAAAGCTT | 0.0177
ACATGTCC | 0.177
AATCTCAC | 0.0356
GTACGGGA | -0.0895
CAGTGATA | 0.0506
CATCCTCA | -0.0935
AATTCCAG | 0.0606
AATTTAAG | 0.218
CTGTCAAC | -0.102
GAACTGTA | 0.237
CTGCTCAC | -0.196
CAAATAGG | -0.0921
GGCATCAA | -0.177
CCATCACG | -0.0075

— the supplement of paper PMC3334620
